From article PMC4336329 (PLoS ONE, 2015)
In all, about 310,000 compounds went through this assay and about 2,200 (0.71%) showed an effect of 50% or more. Effects have a minus sign here. The list shows a part of the results.

molecular target: human ether-à-go-go-related gene (hERG) potassium channel (human, UniProt Q12809); assay: primary screen, population patch clamp on CHO cells stably expressing hERG
Sequence (Q12809 whole entry, looked up): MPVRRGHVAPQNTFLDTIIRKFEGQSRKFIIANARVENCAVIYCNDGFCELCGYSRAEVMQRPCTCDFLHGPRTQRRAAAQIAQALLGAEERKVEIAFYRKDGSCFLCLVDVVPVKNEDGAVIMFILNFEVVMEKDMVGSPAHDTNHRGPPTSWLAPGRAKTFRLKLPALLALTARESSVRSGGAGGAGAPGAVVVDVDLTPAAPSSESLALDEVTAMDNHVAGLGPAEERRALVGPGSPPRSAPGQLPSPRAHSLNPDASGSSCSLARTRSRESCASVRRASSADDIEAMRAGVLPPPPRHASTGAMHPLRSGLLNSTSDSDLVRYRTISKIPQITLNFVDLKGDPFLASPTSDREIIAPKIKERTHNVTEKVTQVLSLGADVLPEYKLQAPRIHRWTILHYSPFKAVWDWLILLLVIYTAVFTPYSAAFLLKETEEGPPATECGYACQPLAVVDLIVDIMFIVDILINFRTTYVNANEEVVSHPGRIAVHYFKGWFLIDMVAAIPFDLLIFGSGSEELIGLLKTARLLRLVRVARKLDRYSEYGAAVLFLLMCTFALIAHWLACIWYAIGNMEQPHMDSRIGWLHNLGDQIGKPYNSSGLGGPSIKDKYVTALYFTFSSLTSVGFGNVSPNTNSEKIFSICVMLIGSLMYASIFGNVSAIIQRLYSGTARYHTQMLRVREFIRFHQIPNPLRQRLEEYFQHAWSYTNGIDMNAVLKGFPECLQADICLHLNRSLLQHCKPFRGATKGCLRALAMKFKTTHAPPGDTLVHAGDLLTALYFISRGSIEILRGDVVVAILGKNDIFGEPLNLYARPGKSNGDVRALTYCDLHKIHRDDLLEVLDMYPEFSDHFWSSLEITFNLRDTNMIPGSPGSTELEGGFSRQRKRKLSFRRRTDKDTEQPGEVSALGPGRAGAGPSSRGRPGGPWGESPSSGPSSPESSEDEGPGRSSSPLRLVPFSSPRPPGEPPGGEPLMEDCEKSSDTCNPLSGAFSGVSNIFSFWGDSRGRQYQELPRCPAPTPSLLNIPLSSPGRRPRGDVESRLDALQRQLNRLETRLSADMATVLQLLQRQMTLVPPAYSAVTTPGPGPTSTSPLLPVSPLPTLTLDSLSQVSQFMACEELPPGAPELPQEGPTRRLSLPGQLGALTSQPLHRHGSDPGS

Row | Structure (SMILES) | hERG current change (%, negative = inhibition) at 1uM [%]
1 | O=C(NNC(=S)Nc1cccc(C(F)(F)F)c1)c1cccc(Cl)c1 | 14.4
2 | CCN(CC)CCNc1nc2c(c(=O)[nH]c(=O)n2C)n1CC(O)COc1ccc(Cl)cc1Cl (centres unmarked) | -66.1
3 | Cc1cccn2cc(CNC(=O)CC3CCCC3)nc12 | 7.13
4 | O=C(N/N=C/c1cc([N+](=O)[O-])ccc1O)C(O)(c1ccccc1)c1ccccc1 | 13.2
5 | O=C(Nc1ccccc1)C1CCOC1=O (centres unmarked) | 13
6 | CC1=C(C(=O)OCCNC(=O)c2cccnc2)C(c2cccc([N+](=O)[O-])c2)C(C(=O)OCCN(C)C)=C(C)N1.CCO (centres unmarked) | 5.29
7 | OCCCCNc1cccc2ccccc12 | 8.22
8 | CC(C)/C(=N\NS(=O)(=O)c1ccc(Br)cc1)c1cccs1 | 2.82
9 | COC(=O)COc1ccc(S(=O)(=O)N2CCCCCC2)cc1 | 14.5
10 | Cn1nccc1NC(=O)Nc1cccc(Br)c1 | 11.1
11 | CC(C)(C)CC(C)(C)NC(=O)Nc1cccc([N+](=O)[O-])c1 | 9.93
12 | Cn1c(CN2CCCCC2)nc2cc(NC(=O)c3ccc(F)cc3)ccc21 | -16
13 | CCn1c(CN2CCN(CCO)CC2)nc2ccccc21 | 3.53
14 | Cc1cc(/C=C2\SC(=S)NC2=O)c(C)[nH]1 | 12.2
15 | CCOC(=O)CN1C(=O)S/C(=C/C=C/c2ccc(N(C)C)cc2)C1=O | 13.9
16 | O=C(Cc1ccccc1)Nc1nnc(SCC(=O)NC2CCCC2)s1 | 2.16
17 | N#CCCn1nc(-c2ccccc2)cc1-n1c(C(F)(F)F)nc2ccccc21 | 9.33
18 | Cc1c(C(N)=O)sc2ncn(CC(=O)N(C)C3CCCCC3)c(=O)c12 | 9.31
19 | CC(Oc1ccc2ccc(=O)oc2c1)C(=O)NC1CCN(Cc2ccccc2)CC1 (centres unmarked) | -38.3
20 | O=C(CN(CC1CCCO1)C(=O)CCC(=O)Nc1nccs1)NCc1ccc2c(c1)OCO2 (centres unmarked) | 14.6
21 | C=C1C[C@H]2[C@@H]3CCc4cc(OC)ccc4[C@H]3CC[C@]12C | 10.7
22 | O=C(NCC1COc2ccccc2O1)C1C2C=CC3(CN(Cc4cccs4)C(=O)C13)O2 (centres unmarked) | 2.05

Row | Structure (SMILES) | hERG current change (%, negative = inhibition) at 1uM [%]
23 | Cc1nc(SCC(=O)NC(=O)NCc2ccco2)nc(C)c1C | 8.09
24 | COc1ccc(-c2csc(-n3cccn3)n2)cc1 | 18
25 | CCOC(=O)c1c(S(=O)(=O)NCCCc2ccco2)c(C)n(C)c1C | 10.1
26 | COC(=O)c1ccccc1NC(=O)Cn1cnc2c1c(=O)n(C)c(=O)n2C | 11
27 | CC(C)(C)OC(=O)N1CCC[C@H]1C(=O)Nc1ccc(C#N)cc1 | 4.26
28 | Cc1ccc(C(=O)NCCNS(=O)(=O)c2ccccc2[N+](=O)[O-])cc1 | 11.6
29 | CCOC(=O)C1=C(COC(=O)COc2cccc(C)c2C)NC(=O)NC1C (centres unmarked) | -1.08
30 | O=C(O)c1cccnc1SCc1cccc(Cl)c1 | 5.06
31 | CCN(CC)C(=O)Cn1cc(C(=O)C(=O)NCCCn2ccnc2)c2ccccc21 | 10.9
32 | COc1ccc(Br)cc1/C=N/n1c(-c2ccccc2)n[nH]c1=S | 16.6
33 | Cc1ccc(Cl)c(OCC(=O)NCc2ccco2)c1 | 6.6
34 | Cc1ccc(CSCC(=O)NCc2ccc3c(c2)OCO3)cc1 | 5.01
35 | Cc1csc2nc(CSc3nncn3-c3ccccc3)c(Br)n12 | 5.2
36 | CC(=O)c1cccc(NC(=O)c2oc(C)nc2C)c1 | -2.48
37 | COc1ccc(/C=C/C(=O)Nc2cc(S(=O)(=O)N3CCOCC3)ccc2N2CCCC2)cc1OC | 4.57
38 | CN(C)CCNC(=O)c1ccc(-c2nn(C)c(=O)c3ccccc23)cc1 | 0.154
39 | COc1cccc(NC(=O)CCC2CCN(C(=O)c3ccc(C(C)=O)s3)CC2)c1 | -4.16
40 | O=C(O)C1CCN(c2ccc(S(=O)(=O)N3CCC(C(=O)O)CC3)cc2[N+](=O)[O-])CC1 | 9.68
41 | Cc1cn(S(=O)(=O)c2ccccc2[N+](=O)[O-])cn1 | 18.2
42 | COc1ccc(-n2nc(C(=O)NCC(=O)NC3CCCCCC3)c3ccccc3c2=O)c(OC)c1 | 11.5
43 | N#CCCn1cc(C(=O)N2CCCCC2)c(-c2cccc([N+](=O)[O-])c2)n1 | 15.5
44 | CC(C)(C)c1ccc(OCCCn2ccnc2)cc1 | 13
